Measurements taken from PMC4336329 (PLoS ONE, 2015).
Among all 310,000 compounds or so, about 2,200 (0.71%) showed an effect of 50% or more. Effects have a minus sign here. Some of the results follow.

biological target: human ether-à-go-go-related gene (hERG) potassium channel (human, UniProt Q12809); experiment: primary screen, population patch clamp on CHO cells stably expressing hERG
Sequence (Q12809 whole entry, looked up): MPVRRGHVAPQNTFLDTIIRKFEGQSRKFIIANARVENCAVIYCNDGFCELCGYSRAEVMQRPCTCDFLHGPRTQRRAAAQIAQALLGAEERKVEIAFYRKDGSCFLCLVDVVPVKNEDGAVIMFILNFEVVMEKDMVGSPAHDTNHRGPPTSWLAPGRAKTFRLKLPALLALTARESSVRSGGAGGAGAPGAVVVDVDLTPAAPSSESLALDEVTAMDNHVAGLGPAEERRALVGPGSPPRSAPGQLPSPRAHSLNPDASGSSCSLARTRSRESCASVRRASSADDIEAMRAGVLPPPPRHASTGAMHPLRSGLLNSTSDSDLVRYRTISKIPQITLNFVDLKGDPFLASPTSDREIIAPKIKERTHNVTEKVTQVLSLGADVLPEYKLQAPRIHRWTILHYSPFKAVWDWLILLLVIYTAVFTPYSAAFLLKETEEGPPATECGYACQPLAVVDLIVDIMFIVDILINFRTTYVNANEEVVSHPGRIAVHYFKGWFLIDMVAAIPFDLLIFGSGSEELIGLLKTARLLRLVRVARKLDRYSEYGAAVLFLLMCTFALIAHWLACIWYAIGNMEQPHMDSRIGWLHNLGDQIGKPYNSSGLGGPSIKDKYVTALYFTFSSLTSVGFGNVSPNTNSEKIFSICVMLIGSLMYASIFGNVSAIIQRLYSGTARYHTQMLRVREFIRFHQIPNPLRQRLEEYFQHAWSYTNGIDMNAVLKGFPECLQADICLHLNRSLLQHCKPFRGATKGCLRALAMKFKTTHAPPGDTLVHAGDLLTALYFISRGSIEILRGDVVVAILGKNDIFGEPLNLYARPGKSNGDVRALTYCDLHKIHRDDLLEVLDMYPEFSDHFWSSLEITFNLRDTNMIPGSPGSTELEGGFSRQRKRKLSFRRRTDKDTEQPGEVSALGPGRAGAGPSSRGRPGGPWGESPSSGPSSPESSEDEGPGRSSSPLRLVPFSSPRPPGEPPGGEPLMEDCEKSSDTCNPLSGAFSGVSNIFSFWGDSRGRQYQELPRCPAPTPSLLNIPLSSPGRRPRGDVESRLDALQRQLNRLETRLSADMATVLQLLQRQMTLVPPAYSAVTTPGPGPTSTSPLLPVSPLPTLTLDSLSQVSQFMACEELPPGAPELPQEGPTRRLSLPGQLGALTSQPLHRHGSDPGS

Compound | hERG current change (%, negative = inhibition) at 1uM [%]
COC(=O)c1cn(C(=O)c2ccc(C)c(C)c2)c2ccccc12 | 8.65
COc1ccc(O)c(CN2CCCC(N3CCN(c4ccccc4OC)CC3)C2)c1 (stereo not shown) | 6.44
Clc1ccc(-c2nnc(-c3ccccc3)c(-c3ccccc3)n2)cc1 | 10.5
Cc1cnc([N+](=O)[O-])n1CCOC(=O)NC(=O)c1ccc(C(F)(F)F)cc1 | -12.2
Cc1cc(Cl)ccc1NNC(=O)CCc1ccccc1 | 10.5
CCCC(C(=O)NCc1ccco1)N(C(=O)CNS(=O)(=O)c1ccccc1)c1ccccc1OC (stereo not shown) | -6.7
Cc1ccc(N(C)C(=O)c2cnn(-c3ccccc3)c2C)c(C)c1 | 10
Oc1c(Cl)cc(Cl)cc1C1Nc2ccccc2-n2cccc21 (stereo not shown) | 12.6
COc1cccc(CNC(=O)CCNS(=O)(=O)c2cccc3nonc23)c1 | 16
CC(C)(C)C(C(=O)n1cccc1C#N)c1ccccc1 (stereo not shown) | 12.9
COCCCNC(=O)C1CCCN(S(=O)(=O)c2cccc3nsnc23)C1 (stereo not shown) | 6.21
O=C(CSc1nnc(-c2ccc3c(c2)OCO3)o1)Nc1ncc(Cl)cc1Cl | 3.82
Cc1nc2ncnn2c(N2CCN(c3cccc(C(F)(F)F)c3)CC2)c1C | -15.6
COc1ccc(NC(=O)COc2cccc(-n3cnnn3)c2)cc1Cl | 21.9
CN(CCOc1ccc(Cl)cc1)C(=O)c1cc([N+](=O)[O-])ccc1N1CCOCC1 | -19.4
COc1cccc(OC)c1C(=O)OCC(=O)NC1CCCCCC1 | 7.12
COc1cccc(C2C(C(=O)NCc3ccccc3)=C(C)Nc3ncnn32)c1 (stereo not shown) | -6.64
COc1ccc(OC)c(-c2csc(NC(=O)CSCc3c(C)noc3C)n2)c1 | 0.673
CC12CCC(=O)N1C(C(=O)Nc1nnc(SCc3ccccc3)s1)CS2 (stereo not shown) | 14.2
Cc1cc(C)n(C(=O)c2ccncc2)n1 | 16.7
Fc1ccc(NC2=NCCS2)cc1Cl | 1.2
O=C(c1ccc(OC2CCN(CCc3ccccc3)CC2)cc1)N1CCCC1 | -1.63
COc1ccc(-n2c(Cn3c(=O)sc4ccccc43)nnc2SCC(=O)N2CCCC2)cc1 | 2.06

Compound | hERG current change (%, negative = inhibition) at 1uM [%]
CCOC(=O)c1cc(CC)sc1NC(=O)C(c1ccccc1)c1ccccc1 | 11.9
C/C(=C\C(=O)c1cccnc1)Nc1ccc(C)c(C)c1 | -4.61
CC(=O)Nc1ccc(SC[C@H](Cc2ccccc2)N2CC[C@@H](C(C)(C)C)CCC2=O)cc1 | 15
Cc1ccc2sc(NNC(=O)C3=COCCO3)nc2c1C | 8.38
C/C(=N\Nc1ccc(Cl)c(C(=O)O)c1)c1ccccn1 | 8.23
Cc1ccc(S(=O)(=O)NC2=C(N3CCN(c4ccccc4F)CC3)C(=O)c3ccccc3C2=O)cc1 | 15.4
CCc1nc(SCC(=O)NC2CC2)c2c(C)c(C)sc2n1 | -4.16
O=C(CCC1CCCCC1)Nc1ccccc1-c1ccccc1 | 10.6
O=C(CN1C(=O)NC(Cc2ccccc2)C1=O)Nc1ccc(OC(F)F)cc1 (stereo not shown) | -46.7
COc1ccc(N2CC(C(=O)N[C@@H](C)C(=O)N3CCCCC3)CC2=O)cc1 (stereo partly shown) | 12.2
CCO[C@@H]1OC(C(=O)N2CCCCCCC2)=C[C@H](c2ccc3c(c2)OCO3)[C@H]1CCCO | -1.26
COC(=O)c1ccc(OCc2cc(=O)n3ccsc3n2)cc1 | 8.79
C=CCN1CCN(Cc2cnc(Cl)s2)CC1 | 3.5
CC(C)(C)c1ccc(-c2ncccc2O)cc1.Cl | 7.72
Cl.O=C(c1ccc2c(c1)OCCO2)N1CCN(Cc2ccccc2)CC1 | 13.4
Cc1nc(NS(=O)(=O)c2ccccc2)sc1C(C)(C)C | -1.22
COc1ccccc1CNC(=O)Cc1cc(=O)[nH]c(=O)[nH]1 | 4.92
CC(=O)Nc1ccc(CN(C)CC2CCCN(CCc3cccc(C(F)(F)F)c3)C2)cc1 (stereo not shown) | -18.4
OCC[C@@H]1C[C@@H](O)[C@H](O)[C@]2(CCCCO2)O1 | 20.4
O=C(Nc1nccs1)c1nc(-c2ccccc2)n(-c2ccccc2)n1 | 12.9
CCCN(S(=O)(=O)c1ccc(OCC)cc1)S(=O)(=O)c1cccs1 | 9.59
Clc1nc2nc3n(c2nc1Cl)CCC3 | 1.96
O=C(CN1CCc2ccccc2C1)NCC(=O)Nc1ccc(F)cc1 | 10.6

Compound | hERG current change (%, negative = inhibition) at 1uM [%]
CC(Sc1cccc2cccc(C(=O)O)c12)C(=O)O (stereo not shown) | 20.7
COc1ccc(C2=NN(C(=O)c3ccccc3)C(c3ccccc3)C2)c(O)c1 (stereo not shown) | 16.7
Cc1ccc(NC(=O)CCNCc2ccco2)cc1S(=O)(=O)N(C)C.O=C(O)C(=O)O | 7.87
CC(C)(C)NC(=O)NC(=O)COc1ccccn1 | 21.2
O=C1CN(C(=O)COC(=O)c2ccco2)c2ccccc2N1 | 14.9
CCOc1ccc(CN2CCC(n3nccc3NC(=O)CCCc3ccccc3)CC2)cc1 | -88.8
Cc1cc(S(=O)(=O)Nc2ccc(C(=O)NCC3(N4CCCCC4)CCCCC3)cc2)ccc1F | -38.3
CN(Cc1ccsc1)C(=O)Cn1cc(Br)ccc1=O | -2.27
CCNC(=S)Nc1cc(C(=O)N2CCCC2)ccc1N1CCCC1 | 7.09
Cc1ccc(CC(=O)N2CCN(C)CC2)cc1 | 14.9
CN(C)n1cnc2ccsc2c1=O | 12.9
COCCNC(=O)Cn1c(=O)n(Cc2ccco2)c(=O)c2ccccc21 | 2.05
O=S(=O)(c1ccccc1)c1nc(-c2cccs2)oc1NCCCn1ccnc1 | -33.4
CCCCNC(=S)Nc1cccc(S(=O)(=O)NC2=NCCC2)c1 | 11
CCCOc1ccccc1/C=C(\C#N)C(=O)Nc1cccc(C)n1 | 11.6
CC(Cc1ccccc1)N/C=C1/CC(=O)NC1=O (stereo not shown) | 5.22
COc1ccc(/C=N/NC(=O)Cn2ccnc2C)cc1OC | 11.2
O=C1C2C(c3ccccc3)C=CC(c3ccccc3)C2C(=O)N1C1CCCCC1 (stereo not shown) | 10.5
CC(=O)c1ccc(NC(=O)CSc2nnc(Cn3cnc4ccccc43)o2)cc1 | 10.7
CC(C)N1C2OC(C3OC4C(O3)N(C(C)C)S(=O)(=O)N4C(C)C)OC2N(C(C)C)S1(=O)=O (stereo not shown) | 7.85
Cc1ccc(NC(=O)CCN2C(=O)c3ccccc3Sc3ncccc32)cc1 | 8.05
Br.Cc1ccc(Cn2c(=N)n(CC(=O)c3ccc([N+](=O)[O-])cc3)c3ccccc32)cc1 | 2.29
Cc1nn(CC2CC2)c(=O)n1-c1ccccc1 | 11.1

Compound | hERG current change (%, negative = inhibition) at 1uM [%]
CSc1ccc(C#N)cc1NC(=O)c1ccc(Cl)nc1 | 10.5
O=C(c1cccc2c1-c1ccccc1C2)N1CCCCC1 | 4.11
CC(C)c1nn2c(=O)cc(COc3cccc(NC(=O)c4ccco4)c3)nc2s1 | 17.7
O=C(Cn1cnc2ccccc2c1=O)N1CCc2ccccc2C1 | 7.18
COc1ccc(C2(CNC(=O)/C=C\c3ccco3)CCCC2)cc1OC | 10.4
C=C(C)Cn1c(SCC#N)nc2ccccc2c1=O | 3.85
CCC(=O)OCC(=O)Nc1ccc(OC)cc1[N+](=O)[O-] | 15.8
CCOC(=O)c1cn(CC)c2ccc(S(=O)(=O)N3CCC(C)CC3)cc2c1=O | -4.51
O=C1N=C(N2CCCC2)S/C1=C\c1ccccc1 | 12.3
C(=Nc1cccc2c(N=Cc3ccco3)cccc12)c1ccco1 | 16.9
Cc1c(Br)c([N+](=O)[O-])nn1CC(=O)Nc1ccc(C(N)=O)cc1 | 12.1
N=C1SCC(=O)N1c1ncc(Cc2ccc(F)cc2)s1 | 7.93
CC(C)OC(=O)C(C#N)c1nc2ccccc2nc1N1CCCC1 (stereo not shown) | 12.3
CC(CCCCC(=O)Nc1ccc(C(F)(F)F)cc1)NCCc1cnc[nH]1.O=C(O)/C=C\C(=O)O (stereo not shown) | -3.77
CC(C)Cc1ccc(C(C)C(=O)N2CCOCC2)cc1 (stereo not shown) | -1.62
COc1ccc(CNC(=O)COC(=O)c2nc3nc(C)cc(C)n3n2)cc1 | 14.3
CCOCCSC1=C(C#N)C(c2cccs2)C(C(C)=O)=C(C)N1 (stereo not shown) | 9.75
N=C(N)N1CCN(Cc2ccccc2)CC1.O=S(=O)(O)O | 9.39
COc1ccccc1NC(=O)CN(c1ccccc1F)S(C)(=O)=O | 8.06
O=C(CNC(=O)c1ccc(Cl)cc1)OCc1nc2ccccc2s1 | 8.88
Cc1cc(N/N=C/c2ccc(Cl)cc2Cl)nc(NCc2ccccc2)n1 | 14.9
COC(=O)C1NN=C(C(=O)c2ccc(Cl)cc2)C1c1ccc(OC)cc1 (stereo not shown) | -1.69
